Laboratory results published in patent publication US5869046A, “Altered polypeptides with increased half-life” (Genentech, Inc., priority 1995, dated 1999).

Assay: Pharmacokinetic study of anti-CD11/18 constructs in mice after intravenous administration (serum concentration by MAC-1 capture ELISA)
Format: in vivo, male Crl:CD-1 (ICR)BR VAF/Plus mice
Protocol: Pharmacokinetic Study of Anti-CD11/18 Constructs in Mice after Intravenous Administration
The objective of this single-dose pharmacokinetic study of five humanized huH52 anti-CD18 antibody fragments (constructs) in mice was to determine if non-specific clearance of antibody fragments is affected by alterations to amino acids in the constant domain. Serum samples were collected from male CD1 mice over a 24-hour period and human anti-CD18 serum concentrations were measured by ELISA.
The anti-CD18 antibody fragments investigated were derived from E.-coli-produced recombinant humanized monoclonal Fab antibody fragments as described above. The Fab fragment and the construct in which two Fab' subunits were joined together by two disulfide bonds were investigated. Lastly, three new versions of the original Fab were constructed by altering amino acids in the constant domain. See the Study Design table below for further description of the constructs.
The construct antigen-binding sites are directed against the CD18 subunit of the CD11/CD18 glycoprotein complex on the surface of leukocytes. These antibody fragments are chimpanzee and human-specific; therefore, the serum pharmacokinetic information obtained in mice provides a description of the non-specific clearance of the fragments.
Because linear pharmacokinetics were expected in this study, a single-dose level of 2 mg/kg was chosen rather than multiple-dose levels.
The pharmacokinetics of the five antibody constructs were studied in male Crl:CD-1® (ICR)BR VAF/Plus® mice (approximately 20-30 g). Five groups, each consisting of twenty mice, received an intravenous bolus dose of 2 mg/kg via the tail vein. Blood samples were collected at 5 and 30 minutes, 1, 2, 4, 8, 12, 16, 20, and 24 hours post-dose. Serum was harvested and concentrations of the antibody fragments were determined in a MAC-1 capture ELISA as follows:
96-Well microtiter plates were coated overnight with murine anti-CD18 monoclonal antibody. After overnight incubation at 4° C., plates were washed three times with ELISA wash buffer and blocked for 1 hour with ELISA diluent. ELISA wash buffer is phosphate-buffered saline (PBS)/0.05% Polysorbate™ 20. This buffer is prepared per liter as 50 mL 20×PBS/1.0% Polysorbate™ 20 (a mixture obtained by dissolving 160 g NaCl, 4.0 g KCl, 22.6 g Na2 HPO4, and 4.0 g KH2 PO4 in glass-distilled or deionized water, adding 10.0 mL Polysorbate™ 20 [Sigma™ P-1379 or equivalent], qs to 1000 mL, and sterile filtering using a 0.22 μm or smaller filter), and qs to 1.0 L of distilled or deionized water, stored at ambient temperature. The expiration period is 2 weeks from the date of preparation.
The ELISA diluent was PBS/0.5% BSA/0.05% Polysorbate™ 20/0.01% Thimerosal™/1 mM CaCl2 /1 mM MgCl2. This diluent was prepared per liter as 5.0 g bovine serum albumin (Armour™ N0068 or equivalent), 50 mL 20×PBS/1.0% Polysorbate™ 20/0.2% Thimerosal™ (a mixture obtained by dissolving 160 g NaCl, 4.0 g KCl, 22.6 g Na2 HPO4, and 4.0 g KH2 PO4 in glass-distilled or deionized water, and adding 10.0 mL Polysorbate™ 20 [Sigma P-1379 or equivalent] and 2.0 g Thimerosal™ [Sigma T-5125 or equivalent], qs to 1000 mL), 0.1% (v/v) 1M CaCl2 (Genentech™ A3165), 0.1% (v/v) 1M MgCl2 (Genentech™ A3167), qs to 1.0 L of distilled or deionized water, and stored at 2°-8° C, with the expiration period 1 month from the date of preparation.
After blocking, the plates were washed again three times with ELISA wash buffer. Soluble MAC1 (CD11b/CD18 as described by Berman et al., J. Cell. Biochem., 52: 183-195 [1993]) was then captured out of a concentrate of media, conditioned by CHO cells expressing the truncated CD11b/CD18 heterodimer. After a 2-hour incubation period, the plates were washed six times with ELISA wash buffer and 100 μL of the mouse serum sample being tested or the standard containing the homologous recombinant human anti-CD18 Fab were added. […]

[1] = single i.v. bolus 2 mg/kg, mice, two-compartment model

B1: Fab v1B: Fab v1b incorporated oligos V1A and V1B; derived from anti-CD18 antibody (SEQ ID NO: 10) (antibody)
heavy: ASTKGPSVFPLAPSPKNSSMISNTPALGCLVKDYFPEPVTVSWNSGALTSGVHTFPAVLQSSGLYSLSSVVTVPHQSLGTQTYICNVNHKPSNTKVDKRV
Question: Which “Clearance” value (2 mg/kg i.v., mice) does the source give for B1 here?
Answer: 1.33 mL/min/kg

Question: And the “Clearance relative to the double-disulfide (Fab')2” value (2 mg/kg i.v., mice, greater clearance over double-disulfide (Fab')2)?
Answer: about three-fold higher

Question: What about the “Slower clearance from the serum relative to the original Fab” value (2 mg/kg i.v., mice, more slowly than original Fab) of the same molecule?
Answer: 2 fold

Question: And the Half life (in words)?
Answer: longer half life

Question: And the “CO (zero-time concentration estimated from the disposition function)” value (single i.v. bolus 2 mg/kg, mice)?
Answer: 44 µg/mL

Question: What about the “Kcp (rate constant, transfer from the central to a peripheral compartment)” value [1] of the same molecule?
Answer: 4.01 h⁻¹

Question: What about the “Kpc (rate constant, transfer from the peripheral to the central compartment)” value [1] of the same molecule?
Answer: 3.42 h⁻¹
